# From publication PMC4336329 (PLoS ONE, 2015)
# Among all 310,000 compounds or so, about 2,200 (0.71%) showed an effect of 50% or more. The effect is printed as a negative number. Some of the results follow.
# Target: human ether-à-go-go-related gene (hERG) potassium channel (human, UniProt Q12809)
# Test: primary screen, population patch clamp on CHO cells stably expressing hERG
# Chain of human ether-à-go-go-related gene (hERG) potassium channel (Q12809 whole entry, looked up): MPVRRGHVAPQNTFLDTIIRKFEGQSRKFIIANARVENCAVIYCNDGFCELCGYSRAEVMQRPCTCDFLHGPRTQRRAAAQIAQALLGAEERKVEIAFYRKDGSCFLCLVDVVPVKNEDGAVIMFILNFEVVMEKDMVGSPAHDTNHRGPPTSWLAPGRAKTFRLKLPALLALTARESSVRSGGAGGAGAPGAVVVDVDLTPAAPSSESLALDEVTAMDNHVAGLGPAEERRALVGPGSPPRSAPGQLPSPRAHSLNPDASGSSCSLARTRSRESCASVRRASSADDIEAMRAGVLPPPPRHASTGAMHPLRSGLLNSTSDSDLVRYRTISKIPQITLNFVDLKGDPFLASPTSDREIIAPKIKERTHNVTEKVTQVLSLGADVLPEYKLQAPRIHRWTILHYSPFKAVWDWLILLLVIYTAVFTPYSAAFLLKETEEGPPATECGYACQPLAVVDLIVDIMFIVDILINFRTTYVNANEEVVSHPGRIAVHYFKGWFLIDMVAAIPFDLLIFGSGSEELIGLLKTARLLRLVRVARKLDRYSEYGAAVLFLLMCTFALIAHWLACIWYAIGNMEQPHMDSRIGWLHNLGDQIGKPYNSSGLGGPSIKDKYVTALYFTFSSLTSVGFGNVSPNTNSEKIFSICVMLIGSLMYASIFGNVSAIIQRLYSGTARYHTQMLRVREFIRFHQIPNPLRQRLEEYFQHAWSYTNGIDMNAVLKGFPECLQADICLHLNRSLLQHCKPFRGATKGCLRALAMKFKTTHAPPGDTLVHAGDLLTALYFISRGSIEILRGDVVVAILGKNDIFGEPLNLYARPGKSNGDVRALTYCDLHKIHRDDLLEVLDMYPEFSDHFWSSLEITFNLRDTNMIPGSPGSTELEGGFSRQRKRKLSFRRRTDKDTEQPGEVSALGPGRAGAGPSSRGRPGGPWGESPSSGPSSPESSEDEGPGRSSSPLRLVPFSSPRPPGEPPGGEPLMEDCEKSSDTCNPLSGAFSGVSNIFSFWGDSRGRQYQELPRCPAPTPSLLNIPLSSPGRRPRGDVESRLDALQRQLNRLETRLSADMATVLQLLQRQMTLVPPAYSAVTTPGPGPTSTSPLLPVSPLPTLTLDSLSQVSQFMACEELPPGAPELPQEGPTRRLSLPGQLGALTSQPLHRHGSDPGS
row,SMILES,"hERG current change (%, negative = inhibition) at 1uM [%]"
1,Cc1cc(C(=O)N2CCN(C(=O)c3ccco3)CC2)ccc1[N+](=O)[O-],-15.9
2,CCCCN(C(=O)c1ccc(-c2ccc([N+](=O)[O-])cc2)o1)c1c(N)n(CCCC)c(=O)[nH]c1=O,9.42
3,CCCOc1ccc(C(=O)N2CCN(c3ccc(NC(=O)CC)cc3Cl)CC2)cc1,-58.7
4,COc1ccc(S(=O)(=O)NNC(=O)Nc2ccc(F)cc2)cc1,8.76
5,O=C(O)CCC(=O)Nc1ccc(Br)cn1,6.26
6,S=c1[nH]nc(-c2ccc(Cl)cc2)n1-c1ccc(Cl)cc1,9.56
7,Cc1ccc(NNC(=O)CCc2ccccc2)c(C)c1,12.8
8,Cc1nnc(NC(=O)NC(C)N2C(=O)C3C4C=CC(C4)C3C2=O)s1 (stereo not drawn),23.3
9,COc1cc2c(cc1OC)-c1cc(NCc3ccccn3)nc(=O)n1CC2,11.6
10,CCOC(=O)N1CCC(n2c(SCC(=O)NCCc3ccc(S(N)(=O)=O)cc3)nc3ccccc3c2=O)CC1,-1.77
11,Cc1cc2nc(-c3ccc(=O)[nH]c3)n(Cc3ccccc3)c2cc1C,-1.15
12,Cc1cc([N+](=O)[O-])ccc1NC(=O)c1ccco1,11.3
13,CC1CCCN(C(=O)c2ccc(NC(=O)CC3SC(N4CCCC4)=NC3=O)cc2)C1 (stereo not drawn),8.1
14,Cc1cc(C)n(CCc2nc(-c3cccs3)cs2)n1,6.85
15,C=C1C(=O)O[C@H]2C[C@@H](C)[C@@H]3C=CC(=O)[C@@]3(C)C[C@H]12,10.8
16,COc1cccc(-c2nnc(SCC(=O)N3CCCC3=O)n2-c2ccccc2)c1,5.18
17,N#C/C(=C\c1ccc2c(c1)OCCO2)C(=O)Nc1ccc(C(=O)O)cc1,13.9
18,CC(Sc1ccsc1[N+](=O)[O-])C(=O)NCc1ccco1 (stereo not drawn),14.9
19,CN1CCN(c2ccc(S(=O)(=O)N3CCCCC3)cc2NC(=O)Cc2c(F)cccc2Cl)CC1,-7.39
20,Cc1cccc(OCCNC(=O)c2cc(-n3cnnc3)ccc2Cl)c1,8.11
21,CSc1ccccc1C(=O)N1CCCC(CNC(=O)c2ccc(F)cc2)C1 (stereo not drawn),17.1
22,O=C1c2ccccc2C(=O)c2c1ccc1c(=O)n(-c3ccccc3)[nH]c21,1.19
23,Cc1ccc(/C=C/C(=O)Nc2ccncc2)o1,0.494

row,SMILES,"hERG current change (%, negative = inhibition) at 1uM [%]"
1,COc1ccc(C2CC(c3ccccc3)=NN2c2ccc(N)cc2)cc1 (stereo not drawn),12.3
2,C/C(=N\N=c1/sc2ccccc2n1C)c1ccc(N2CCOCC2)cc1,13.2
3,Cc1ccc2c(c1)N(Cc1ccc3c(c1)OCO3)C(=O)C(C)O2 (stereo not drawn),0.202
4,COC(=O)C(C)Sc1ncnc2c1nnn2-c1ccc(F)cc1 (stereo not drawn),5.47
5,CCc1ccc(S(=O)(=O)Nc2cccc(-c3ccc4nnc(C)n4n3)c2)s1,-8.53
6,O=C(NCCO)C1COc2ccccc2O1 (stereo not drawn),12.5
7,O=C(Nc1ccc(C(=O)N2CCCC2)cc1)c1ccccc1[N+](=O)[O-],14.3
8,N#Cc1sc(NCc2ccccn2)nc1Cl,16.5
9,COc1ccccc1OCC#CCSc1ncccn1,17.6
10,Cc1ccc(S(=O)(=O)NCC(c2cccnc2)N(C)C)cc1 (stereo not drawn),10.4
11,CCOc1ccc(NC(=O)c2cccnc2C(=O)O)cc1,13.3
12,Cc1ccccc1CSCCC(=O)NCCc1ccccc1,15
13,Cc1ccc(S(=O)(=O)Nc2cccc3ncccc23)s1,4.17
14,COc1cccc(Cn2nnc(C(=O)Nc3cc(C)ccc3OC)c2N)c1,8.48
15,Cc1c(NC(=O)c2ccc([N+](=O)[O-])o2)cccc1-c1nc2ncccc2o1,4.28
16,COc1ccc2oc(C(=O)Nc3ccc(C)cn3)c(C)c2c1,7.75
17,CCOc1ccc(N2C(=O)C3CCCN3C2=S)cc1 (stereo not drawn),8.82
18,O=C(CN1C(=O)NC2(CCCCC2)C1=O)Nc1ccccc1N1CCCC1,18.2
19,CC(C)(C)C1c2[nH]c3ccccc3c2CCN1Cc1cccc(OCCO)c1 (stereo not drawn),5.64
20,CC(C)(C)C(=O)/C=c1\[nH]c(=O)/c(=C\c2ccccc2F)s1,9.02
21,COc1cccc(/C=C/C(=O)OCC(=O)NCc2ccco2)c1,-1.73
22,O=C(NCCc1ccccc1F)C1CCC(=O)N(CCCN2CCCC2=O)C1 (stereo not drawn),-2.84
